Values marked as one replicate rest on one cluster of the flow cell; about a third of the high ones do not repeat.
These sequences were tested on ATP (assay: switch fluorescence ratio, 500 uM ATP over buffer (Cy3 cluster intensity, sum of 5 cycles each) (fold (ratio)); higher = stronger signal-on switching upon ATP binding; sequences stand for … in TCGTCGGCAGCGTCAGATGTGTATAAGAGACAGTTTTTTTTTTTTTTTTTTTTTTTTT…TC). Conditions: aptamer strand: ATP DNA aptamer (quencher-CACCTGGGGGAGTATTGCGGAGGAAGG + anchor), 100 nM annealed; ATP concentration: 500 uM; one replicate.
In short: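 For every switch-domain sequence, the fluorescence ratio is the mean of per-cluster values, each being summed target-cycle Cy3 intensity over summed buffer-cycle Cy3 intensity. Clusters outside 100-1000 RFU were excluded. On a modified Illumina MiSeq flow-cell, the Cy3-labelled switching-strand clusters were annealed to 100 nM quencher-labelled ATP aptamer, imaged in selection buffer and then after 15 min with 500 uM ATP at 22 °C. Five such cycles were run, with NaOH stripping and re-annealing between them.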
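Further: ATP exposure 15 min at 22 °C before imaging.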

Sequence	switch fluorescence ratio
CAAAGCTTG	1
TGTGTGTCTG	0.963
CGACCCGTCC	1.18
GGGAAACCAA	1.02
GGGAAGTGGT	1.03
TGGAAGTTTA	1.02
ACAGTGGCGC	1.08
TCTGTATGTC	0.974
GTAATGCGGC	1.1
AGGGGATTG	0.975
AGGGTTGAAT	1
GGCGTTGCTT	1.03
TTCCGTTAGC	1.56
TCTATCCCAT	0.99
TGAAAACTT	1.07
TAGCCGCCTC	1.21
ACTTAGAACT	1.03
TCGGCTGGTA	0.968
GGCACTTATA	1.04
TGGTCGTAGA	1.03
TTACACGAGT	1.02
CGGGTTATCG	0.986
GGGATCGCTC	1.03
CGCCGAGGTT	1.02
TTTCCGGTG	1.46

Sequence	switch fluorescence ratio
TGCAGTGGAC	1.18
AAAATGCCAT	1.01
TAAAGAGCCT	1.06
ACGAACAGTC	1.25
CCAATTGGAT	0.988
TAGATTCCGA	1.01
GTCGGTAGAT	0.975
GCCGCTTTCT	0.969
GGGTGCTTAA	0.982
AGCATTGGAC	1.2
GGAGCTATCG	1.26
TTAGGTCGAC	0.999
TTCCAATTAA	1.02
CAGAAAGAT	0.989
AGTCAGTACA	1
ACTATACCAT	1.3
TCGTGCGGTG	1.09
TAATGCAGCT	0.972
GCTAGCCCCG	1.04
ATCGACAACA	1.04
AGTTATAGTC	1
TTAGAGAGGG	0.966
GGGAGAGGT	0.964
ACTGGGATTA	0.974
GTGCTCAGT	0.957

Sequence	switch fluorescence ratio
AAGACCTCGA	0.979
AGATCAACAT	1.03
TAGCAGCGTT	1.22
ATTGAGCCGA	1.05
TCTACCCGA	1.04
TAAGCGAAAT	0.99
CGCGAGGATT	1.02
TGAGTACTGG	1.01
GATCCGAGAA	1
ACAACGGGGC	1.04
AGAAAGCCAG	0.954
GATATCCTTT	0.996
CTACTTTCGA	1.02
GGATAATTTC	0.972
TTACTGCGAC	1.53
GCATGTTTAG	0.953
TATATATCGT	0.973
CAATGATGAT	0.967
GCTCAGAGTT	1.03
AGCTGGGAGG	1.02
AATTATGAGG	0.979
ATTCTGTAGT	1.06
ACGAAGAATG	0.995
CATAATTTCA	1
ATCTTAGAT	1.03

Sequence	switch fluorescence ratio
TAGTGGAGGT	1.03
CAGCATTTAA	1.06
CTGAAGTGT	0.961
AATCAAGAAC	1.08
TCATTCAACC	0.983
TTGCTACCC	1.13
CGGATCGTTA	1.01
TAACACGCGC	1.04
CCGAATCACA	1.32
ATTTTGGGAG	0.983
GCGCACAGGG	1.17
GACTTTCCTT	1.03
CAGGATAAA	1.02
TTAGCCACT	0.997
GCTGGTGGAG	0.983
AAAGACGGT	0.988
GAACACAAGT	1.07
TCGGCTGAAT	1.02
ATTAGGAGGG	1.04
TGATGGCTCT	1.02
TATATGCGTC	1.01
CTCTTACGCG	0.984
GGGTTCTTCC	1.22
AGGGTGGCTC	0.962
TCGAAACGAA	0.989
